32 sequences from article PMC12820563, “FoxP3 forms a head-to-head dimer in vivo and stabilizes its multimerization on adjacent microsatellites” can be followed below.

The list shows a part of the results.

For the test, the target named is T1, MBP-FoxP1dN (Mus musculus, UniProt P58462 326-579).
T1 sequence: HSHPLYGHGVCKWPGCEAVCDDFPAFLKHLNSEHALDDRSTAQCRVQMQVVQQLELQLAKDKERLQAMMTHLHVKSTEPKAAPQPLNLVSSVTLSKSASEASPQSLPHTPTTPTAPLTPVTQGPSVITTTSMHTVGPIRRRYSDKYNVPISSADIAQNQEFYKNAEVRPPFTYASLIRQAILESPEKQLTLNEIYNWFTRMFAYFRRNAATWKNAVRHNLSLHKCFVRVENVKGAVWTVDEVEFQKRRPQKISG
The test is described as follows: PD-seq (MBP pull-down with sequencing); 20 mM Tris-HCl pH 7.5, 100 mM NaCl, 1.5 mM MgCl2, 0.4 uM protein, 0.1 uM dsDNA library, 30 min, room temperature, amylose pull-down; high values mean tight binding. Conditions: protein: recombinant; tags: His6-MBP; chain copies: 2; dsDNA, one strand shown. Summed up: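 Amylose resin was used to capture complexes formed during 30 min at room temperature in Tris pH 7.5 buffer with NaCl and MgCl2 between 0.4 µM His6-MBP-tagged mouse FoxP3 or FoxP1 fragment lacking the N-terminus, expressed in E. coli, and 0.1 µM Klenow-filled double-stranded degenerate DNA library. After three washes, the DNA was released with proteinase K, barcoded by PCR and sequenced on Illumina. Binding is pooled-replicate reads-per-million enrichment, pull-down over input.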
For the sequence “GATGATTGTTCTCCCAGCTGATGAATTATCTTACTCGAGTAAACAAATTTTCCTAATCTTTCTGTTCAAGCGCCATCTAC”, the binding signal was 0.919 RPM ratio (pull-down/input).

Take “GATGATTGTTCTCCCAGCTGATGAATTACGCTCCTCGAGTAAACAAATTTTCCTAATCTTTCTGTTCAAGCGCCATCTAC”: the binding signal is 0.964 RPM ratio (pull-down/input).

For the sequence “GATGATTGTTCTCCCAGCTGATGAATTGTTAACCTCGAGTAAACAAATTTTCCTAATCTTTCTGTTCAAGCGCCATCTAC”, the binding signal is 1.03 RPM ratio (pull-down/input).

In the case of “GATGATTGTTCTCCCAGCTGATGAATTCACAATATCGAGTAAACAAATTTTCCTAATCTTTCTGTTCAAGCGCCATCTAC”, the binding signal is 1.64 RPM ratio (pull-down/input).

Turning to “GATGATTGTTCTCCCAGCTGATGAATTTGCGTGCTCGAGTAAACAAATTTTCCTAATCTTTCTGTTCAAGCGCCATCTAC”, the binding signal was 1.05 RPM ratio (pull-down/input).

For “GATGATTGTTCTCCCAGCTGATGAATTGCATAAATCGAGTAAACAAATTTTCCTAATCTTTCTGTTCAAGCGCCATCTAC”, the binding signal is 1.39 RPM ratio (pull-down/input).

As to “GATGATTGTTCTCCCAGCTGATGAATTTCGAGGGTCGAGTAAACAAATTTTCCTAATCTTTCTGTTCAAGCGCCATCTAC”, the binding signal is 0.748 RPM ratio (pull-down/input).

In the case of “GATGATTGTTCTCCCAGCTGATGAATTCAAGGCGTCGAGTAAACAAATTTTCCTAATCTTTCTGTTCAAGCGCCATCTAC”, the binding signal is 0.993 RPM ratio (pull-down/input).

Take “GATGATTGTTCTCCCAGCTGATGAATTTCATCGTTCGAGTAAACAAATTTTCCTAATCTTTCTGTTCAAGCGCCATCTAC”: the binding signal was 0.871 RPM ratio (pull-down/input).

Consider “GATGATTGTTCTCCCAGCTGATGAATTTTGTACTTCGAGTAAACAAATTTTCCTAATCTTTCTGTTCAAGCGCCATCTAC”, for which the binding signal was 0.97 RPM ratio (pull-down/input).

Turning to “GATGATTGTTCTCCCAGCTGATGAATTGTCGTTTTCGAGTAAACAAATTTTCCTAATCTTTCTGTTCAAGCGCCATCTAC”, the binding signal is 1.34 RPM ratio (pull-down/input).

As for “GATGATTGTTCTCCCAGCTGATGAATTTTGGACCTCGAGTAAACAAATTTTCCTAATCTTTCTGTTCAAGCGCCATCTAC”, the binding signal was 0.828 RPM ratio (pull-down/input).

As for “GATGATTGTTCTCCCAGCTGATGAATTTCGAGACTCGAGTAAACAAATTTTCCTAATCTTTCTGTTCAAGCGCCATCTAC”, the binding signal is 0.778 RPM ratio (pull-down/input).

With “GATGATTGTTCTCCCAGCTGATGAATTTGACCTATCGAGTAAACAAATTTTCCTAATCTTTCTGTTCAAGCGCCATCTAC”, the binding signal is 0.822 RPM ratio (pull-down/input).

As to “GATGATTGTTCTCCCAGCTGATGAATTGTTCTCGTCGAGTAAACAAATTTTCCTAATCTTTCTGTTCAAGCGCCATCTAC”, the binding signal is 1.18 RPM ratio (pull-down/input).

For “GATGATTGTTCTCCCAGCTGATGAATTACGTGCATCGAGTAAACAAATTTTCCTAATCTTTCTGTTCAAGCGCCATCTAC”, the binding signal is 1.4 RPM ratio (pull-down/input).

For the sequence “GATGATTGTTCTCCCAGCTGATGAATTGGCTCGTTCGAGTAAACAAATTTTCCTAATCTTTCTGTTCAAGCGCCATCTAC”, the binding signal was 0.876 RPM ratio (pull-down/input).

With “GATGATTGTTCTCCCAGCTGATGAATTGAAAGTATCGAGTAAACAAATTTTCCTAATCTTTCTGTTCAAGCGCCATCTAC”, the binding signal is 1.01 RPM ratio (pull-down/input).

As for “GATGATTGTTCTCCCAGCTGATGAATTTATTCTCTCGAGTAAACAAATTTTCCTAATCTTTCTGTTCAAGCGCCATCTAC”, the binding signal is 1.15 RPM ratio (pull-down/input).

With “GATGATTGTTCTCCCAGCTGATGAATTCGCAACGTCGAGTAAACAAATTTTCCTAATCTTTCTGTTCAAGCGCCATCTAC”, the binding signal was 0.918 RPM ratio (pull-down/input).

With “GATGATTGTTCTCCCAGCTGATGAATTCCTAACATCGAGTAAACAAATTTTCCTAATCTTTCTGTTCAAGCGCCATCTAC”, the binding signal was 1.04 RPM ratio (pull-down/input).

As to “GATGATTGTTCTCCCAGCTGATGAATTTTTCGATTCGAGTAAACAAATTTTCCTAATCTTTCTGTTCAAGCGCCATCTAC”, the binding signal was 0.944 RPM ratio (pull-down/input).

For “GATGATTGTTCTCCCAGCTGATGAATTCCACGAATCGAGTAAACAAATTTTCCTAATCTTTCTGTTCAAGCGCCATCTAC”, the binding signal was 0.963 RPM ratio (pull-down/input).

“GATGATTGTTCTCCCAGCTGATGAATTCCCCATGTCGAGTAAACAAATTTTCCTAATCTTTCTGTTCAAGCGCCATCTAC”: the binding signal was 0.795 RPM ratio (pull-down/input).

“GATGATTGTTCTCCCAGCTGATGAATTAGCTTGGTCGAGTAAACAAATTTTCCTAATCTTTCTGTTCAAGCGCCATCTAC”: the binding signal is 0.839 RPM ratio (pull-down/input).

As to “GATGATTGTTCTCCCAGCTGATGAATTCGCATGGTCGAGTAAACAAATTTTCCTAATCTTTCTGTTCAAGCGCCATCTAC”, the binding signal was 0.833 RPM ratio (pull-down/input).

Regarding “GATGATTGTTCTCCCAGCTGATGAATTACTACAGTCGAGTAAACAAATTTTCCTAATCTTTCTGTTCAAGCGCCATCTAC”, the binding signal is 1.15 RPM ratio (pull-down/input).

For the sequence “GATGATTGTTCTCCCAGCTGATGAATTATTCGGGTCGAGTAAACAAATTTTCCTAATCTTTCTGTTCAAGCGCCATCTAC”, the binding signal is 0.886 RPM ratio (pull-down/input).

As to “GATGATTGTTCTCCCAGCTGATGAATTGGGATCATCGAGTAAACAAATTTTCCTAATCTTTCTGTTCAAGCGCCATCTAC”, the binding signal is 0.969 RPM ratio (pull-down/input).

Consider “GATGATTGTTCTCCCAGCTGATGAATTAAGATTTTCGAGTAAACAAATTTTCCTAATCTTTCTGTTCAAGCGCCATCTAC”, for which the binding signal is 0.908 RPM ratio (pull-down/input).

With “GATGATTGTTCTCCCAGCTGATGAATTGGCAGCCTCGAGTAAACAAATTTTCCTAATCTTTCTGTTCAAGCGCCATCTAC”, the binding signal was 0.837 RPM ratio (pull-down/input).

As for “GATGATTGTTCTCCCAGCTGATGAATTTCGCAACTCGAGTAAACAAATTTTCCTAATCTTTCTGTTCAAGCGCCATCTAC”, the binding signal is 0.986 RPM ratio (pull-down/input).
